These results are taken from the RNAGym collection of RNA variant scans (doi:10.1101/gad.245936.114).

Variants at the floor of the assay are shown more often than the library holds them. Some results are limits rather than exact numbers.

B1: tRNA (parent)
chain: CUCUCGGUAGCCAAGUUGGUUUAAGGCGCAAGACUUUAAUUUAUCACUACGAAAUCUUGAGAUCGGGCGUUCGACUCGCCCCCGGGAGAUUUUUUCCUCGAGCAA

In this data set the parent is B1. Briefly: nonsense suppression (GFP-seq) (ratio to wild type); higher = more function; SUP4oc tRNA, yeast GFP reporter sort-seq. In short, it runs like this: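 To measure nonsense suppression, tRNA variants from a library carrying ~3% random mutations were integrated into the yeast genome alongside RFP and a GFP ochre reporter under galactose control. Growth took place in raffinose/galactose medium supplemented with 80 mg/L adenine, followed by sorting into GFP/RFP bins and Illumina sequencing of each bin (phred ≥30). For each variant with ≥100 reads and ≥30 cells, the bin median GFP/RFP values were weighted by its estimated cell share per bin and referenced to the unmutated parent tRNA.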
With A24G C64U, the nonsense suppression is at most 0.026.
In the case of U58A C68A it was at most 0.026.
For the variant C75G G85C, the nonsense suppression came to 0.191.
G6C G18C: the nonsense suppression is at most 0.026.
On to U2C A54G A60C, for which the nonsense suppression was at most 0.026.
Take U55G A74U: the nonsense suppression was at most 0.026.
In the case of U4G A33G it was 0.0332; in that of C1A G25A G32A, at most 0.026.
Turning to G6A U8C G85A, the nonsense suppression was at most 0.026.
Consider C27G G32U C75A C81G G88C, for which the nonsense suppression is at most 0.026.
With C5A C12U C34A the figure was at most 0.026; with G28A A31C A89C, at most 0.026.
In the case of C72U G86C it was at most 0.026; in that of U8G A13G G61C C68G C82G, at most 0.026.
As to U16G G25C G59U G78U G84A, the nonsense suppression is at most 0.026.
With A9C U21G A33G the figure was at most 0.026; with A33U G61C, at most 0.026; with C27U G28A A33U C80A, at most 0.026.
With A14C A33G U57G the figure was at most 0.026.
Take U2A C27U G32A: the nonsense suppression was at most 0.026.
As for G10A U17G G69C, the nonsense suppression was at most 0.026.
In the case of G10C A14U G66C it was at most 0.026; in that of U4C C12G, at most 0.026.
A13U A14G U16A G26A: the nonsense suppression is at most 0.026.
Take G10U C11G G32A C79A G85A: the nonsense suppression was at most 0.026.
In the case of C1A U21C A87U it was at most 0.026.
On to U4C G67A U70C C72G, for which the nonsense suppression is at most 0.026.
In the case of G26U C75A C82G it was at most 0.026; in that of U58A G65C, at most 0.026.
With U4A G18U A31C C77G the figure was at most 0.026; with U2A G18U G67U, at most 0.026.
For the variant G6A U57C U58C, the nonsense suppression is at most 0.026.
In the case of A31G G67C C68G it was at most 0.026; in that of G28A A33U, 0.0279.
On to A74G C79A, for which the nonsense suppression was at most 0.026.
In the case of G59U U63A C64A, the nonsense suppression is at most 0.026.
With G28C the figure was 1.17.
Regarding G28A, the nonsense suppression is 0.975.
As for C34G C68A G88U, the nonsense suppression was at most 0.026.
Turning to C5U C75A, the nonsense suppression was 0.209.
As for U4C, the nonsense suppression amounted to 0.585.
In the case of G10A G61A G88C it was at most 0.026.
On to U57A G59U G88C, for which the nonsense suppression is at most 0.026.
Take C29U A62G G69U: the nonsense suppression was at most 0.026.
Turning to C3U C56U, the nonsense suppression is at most 0.026.
Take C12G C81G: the nonsense suppression was at most 0.026.
In the case of U58G A74C C82A it was at most 0.026.
In the case of U16A G19U it was at most 0.026; in that of U17C C83G, at most 0.026.
With G7A U35G U57G C79G the figure was at most 0.026.
For the variant U4G G18C G85U, the nonsense suppression was at most 0.026.
With C1A U16G the figure was at most 0.026.
With G59U C75A G78C G84C G86C the figure was at most 0.026; with G19U A23U C34A U63G, at most 0.026.
With U21C G78U the figure was 0.442; with A9C U71A U76C, at most 0.026.
For U55C A62G A74U, the nonsense suppression was at most 0.026.
For A9G G10U, the nonsense suppression is 0.0476.
For U35C G85U, the nonsense suppression was at most 0.026.
With U21G C81A the figure was at most 0.026; with U57A G66U G78A, at most 0.026.
Consider G18A A30G U35A U55A C79A, for which the nonsense suppression is at most 0.026.
Consider U55C C75G, for which the nonsense suppression came to 1.16.
Turning to A24U U58G, the nonsense suppression was at most 0.026.
With G6C A23U the figure was at most 0.026; with G6C A23C, at most 0.026; with A54U U63A, 0.864.
With A9C U57G the figure was at most 0.026; with G65A G85C A87C, at most 0.026.
In the case of A30U G61C it was at most 0.026; in that of G7A A13U G26A U76C, at most 0.026; in that of G61A G69A C81G, at most 0.026.
Turning to U8A U21A, the nonsense suppression was at most 0.026.
With A30U U57C the figure was at most 0.026; with C12U G67A G78A, at most 0.026.
As to U16G C56A U63G G85U, the nonsense suppression was at most 0.026.
In the case of C56U U71G G78A, the nonsense suppression is at most 0.026.
Consider G10C G19U C64G, for which the nonsense suppression is at most 0.026.
With U2C A14G U16C G19C A33U the figure was at most 0.026; with G25C G66A U70G, at most 0.026.
With U4G G73U, the nonsense suppression came out at 0.0898.
In the case of A9U A31C U63G G67C it was at most 0.026; in that of C56G C80A, at most 0.026.
In the case of U2C U4C it was 1.01; in that of A24C C27A A74U G86A, at most 0.026; in that of G6U C29G G59C U76G, at most 0.026.
In the case of A24C G84U it was at most 0.026; in that of C11U A31G, at most 0.026; in that of C34U U63C C77G, at most 0.026.
Take C11A G18U A74U: the nonsense suppression is at most 0.026.
In the case of C11G G59A C64A it was at most 0.026; in that of U55C U63A C75G, 0.0265.
For the variant U4C A9G, the nonsense suppression was 0.391.
Consider A30G C56A G61C C81U, for which the nonsense suppression was at most 0.026.
In the case of A24C G59U G85U it was at most 0.026.
As to C1G G88A, the nonsense suppression was at most 0.026.
With G6U A30G G67U G84U the figure was at most 0.026; with C5A U57G G67U, at most 0.026.
With U22C C29U G61A the figure was 0.386; with A23U U63C C77U, at most 0.026; with C1A G86C, at most 0.026.
In the case of C3U U76C C83U it was at most 0.026.
In the case of U22G C27G C56G A60U C75U G88U, the nonsense suppression is at most 0.026.
With C5U A87G, the nonsense suppression was found to be 0.0561.
With A30U G69A G84C the figure was at most 0.026.
Take G26U A74C U76G: the nonsense suppression is at most 0.026.
In the case of A31C U70C C72U it was at most 0.026.
Turning to G28U G32C G67U C79G, the nonsense suppression is at most 0.026.
In the case of U57C C81U G84U it was at most 0.026; in that of U21G A33U U57C U58A A89U, at most 0.026; in that of A23C G69C, at most 0.026.
On to A24U G88C, for which the nonsense suppression was at most 0.026.
For A9G U20G G26U C27A U63A U76C, the nonsense suppression was at most 0.026.
As for C3A G73C G85A, the nonsense suppression was at most 0.026.
As to G19A G26U U63C, the nonsense suppression was at most 0.026.
For A23G A30C A74G, the nonsense suppression is at most 0.026.
Regarding G67U G88U, the nonsense suppression was at most 0.026.
In the case of G61C G78C it was at most 0.026; in that of C11G A30U U35A A54U, at most 0.026.
Regarding A9U G66A, the nonsense suppression worked out at 0.0305.
In the case of U17C A33C it was at most 0.026; in that of G7C U55G C79G, at most 0.026; in that of C3U U70G U76C, at most 0.026.
In the case of A74G A87G it was at most 0.026; in that of G19C A31C, at most 0.026; in that of U58G C64G C83G, at most 0.026.
As to C11U U71A C75A, the nonsense suppression was at most 0.026.
For the variant C64U C82G C83G, the nonsense suppression is at most 0.026.
With C27G G73C the figure was at most 0.026; with C3A C34A U58A, at most 0.026.
In the case of G19U A54C, the nonsense suppression was at most 0.026.
With C12A A13U the figure was at most 0.026; with G10A G32C, at most 0.026; with U22C G25C G32C A62C C64G, at most 0.026.
With C5U A24G A33G A74C G78C the figure was at most 0.026.
For U76A G86C, the nonsense suppression was at most 0.026.
With G10C C29U A60G A74C the figure was at most 0.026.
Regarding A24U G59U A60C, the nonsense suppression was at most 0.026.
As for G10C G61A C82G, the nonsense suppression was at most 0.026.
In the case of U76A C83A it was at most 0.026; in that of G26C A62G C83U, at most 0.026; in that of A9U C11U, at most 0.026.
With G32U G85C the figure was at most 0.026; with G28C G78U, at most 0.026.
As for G26C C29A C82A, the nonsense suppression was at most 0.026.
In the case of G15U A31C A33U it was at most 0.026; in that of C12G G15C U21G A23U C27U U58A, at most 0.026.
On to A33C C80A G85C, for which the nonsense suppression was at most 0.026.
As to C3A C79U, the nonsense suppression is at most 0.026.
In the case of C1U A33G G67U U76A it was at most 0.026; in that of C1U U55G U76A, at most 0.026; in that of U17A A23C C29A, at most 0.026.
With U8C G73C C81G A87G the figure was at most 0.026.
With C1G U20A G25A the figure was at most 0.026.
On to A9C G18A A31C A54C A62U G69C G88C, for which the nonsense suppression is at most 0.026.
For the variant C80U C83A, the nonsense suppression was at most 0.026.
With G25U G73U the figure was at most 0.026.
In the case of C1U U55C it was at most 0.026; in that of C1U G18C C77G, at most 0.026; in that of U20C C81U, at most 0.026.
For the variant C3A A24U C83G, the nonsense suppression is at most 0.026.
With C80U A87U, the nonsense suppression turned out to be 0.035.
As for U2A U57C, the nonsense suppression was at most 0.026.
Consider U21A U55C C79U, for which the nonsense suppression is at most 0.026.
With C5U G85C G88U the figure was at most 0.026; with A9U C29G, at most 0.026; with U17A G28U A31C C80G G84C G86A, at most 0.026.
